Assay results: the supplement of paper PMC11417369
± gives the standard deviation of the averaged measurements. The list shows a part of the results.

system: PfAP2-EXP AP2 domain (GST-tagged); test: gcPBM binding intensity (ln(normalized median fluorescence intensity)); higher = stronger DNA binding
Method in brief: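 Binding intensity is defined as the maximum Masliner-normalised natural-log median intensity across replicate spots for either probe orientation. It was measured on an Agilent 4 × 180k array of primer-extended double-stranded 36-bp intergenic genomic probes and negative controls, to which GST-tagged P. falciparum DNA-binding domains made in E. coli were applied for 1 h in 1× PBS with 1% milk, 0.2 mg/ml BSA, 0.5% salmon testes DNA and 0.03% Triton X-100. Detection was by Alexa488 anti-GST antibody and scanning at 488 nm.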

Sequence | gcPBM binding intensity (ln)
ATTTATTGACTATTTACACACATATTTATTAGAATA [CACACA_site6863] | 8.65 ± 0.45
ATGATACATAAAGAATATAAAACATGAAATATAATA [CACACA_negctrl_site1461] | 8.56 ± 0.47
TAATTTAAAAATATAAATGTTTCACTTATATATTTT [TGCATGCA_negctrl_site399] | 7.98 ± 0.35
ATATGAAAGGTGTACACACGCACACCCAAAAAAATA [CACACA_site2911] | 8.62 ± 0.47
ATATATAATATATATGCATGTGACATTAATAATATA [TGCATGCA_site880] | 8.57 ± 0.35
AACTGAGAAACCGAAGTGCAATATGTATATATACAT | 8.98 ± 0.32
CCACACTTAAAATACACACACACCAAAAAAAAAAAA [CACACA_site2709] | 8.43 ± 0.37
TTTTTTACGCATAACTTAATATGAGAATCCCTTTCT [GTGCAC_negctrl_site522] | 8.48 ± 0.4
TACACCCATGGACACACACACACGCATAAAAAAAAA [CACACA_site4933] | 8.63 ± 0.45
AAAAAAAAAAAAAAAACACACATTTGAAAGAAAGAA [CACACA_site3339] | 8.71 ± 0.33
ATTTTTATTTTCTTTACACACCACATAATTTTTTTT [CACACA_site6092] | 9.02 ± 0.52
CTTTTATGAAACAGTGCACACATAAAAATATATACA [CACACA_site8981] | 9.05 ± 0.21
TATATCGTTATATAAACACACAATATGTTTTTTATA [CACACA_site7730] | 8.29 ± 0.38
CATAAGAGGAACTTTTGTACTTATATGTATATAGTA [XGTACX_site5836] | 8.32 ± 0.49
GCCACACTTTTCTGCACACATAAAAAATATATAAAT [CACACA_site578] | 8.96 ± 0.3
ACATGAATTTATATGTGTACTAACTATATTCTTAAA [XGTACX_site5966] | 8.27 ± 0.25
TCTGGCATATAATATTGTACACATATATATATATAT [XGTACX_site8182] | 10.2 ± 0.33
TATATACAATATAGGTGTACATTTTTTTATCTATTT [XGTACX_site8431] | 8.62 ± 0.31
ATGAATAAATAGGTCACACACAAATATTTATAAATA [CACACA_site7186] | 8.77 ± 0.52

Sequence | gcPBM binding intensity (ln)
TATCTGTATTTATTCACACATATAAAATATAATTAA [CACACA_site5560] | 8.34 ± 0.37
GATATGAATATAGGTTGTACTATATATAAAGTATGT [XGTACX_site1877] | 8.61 ± 0.3
AACGGGGGTAGTTTTATGCACACGTTTATTAATGCT [CACACA_site3173] | 9.35 ± 0.37
AAAGTACAAGTATAATCACACGTGTCTATTATATAC [CACACA_site4507] | 8.86 ± 0.54
TATATGTTAATTTTTTTTTTTTTTTTTTTTTTTATA [CACACA_negctrl_site62] | 7.92 ± 0.49
AATATCTTAGTGGATACACACATATAAATGTGTATT [CACACA_site6367] | 8.31 ± 0.33
TTGAGCATAAAATTTGGAAACCTCAATCGGACAAAA [GTGCAC_negctrl_site84] | 8.51 ± 0.38
CTTTCAATTTTTTTCTGTACCAATAAAAAATATAAA [XGTACX_site2120] | 8.46 ± 0.3
ATATTTATGTAAAAAAGTACATACAATTATATATGT [XGTACX_site3750] | 8.35 ± 0.28
GATTACAAAAAAAATACACACAAAAAAAAAAAGGAA [CACACA_site2096] | 8.54 ± 0.58
ATAATGTTTTATAATACACACATTATATATATAAAT [CACACA_site6101] | 8.4 ± 0.37
ACACATACATACATATGTACATATATACATATATAC [XGTACX_site5559] | 8.84 ± 0.26
TACAAAAAAGAAGATATTCAAACAAAAACAAAAAAA [CACACA_negctrl_site1126] | 8.57 ± 0.49
CAATACTATTATTATAGTACGTATAAAATTATATAT [XGTACX_site4950] | 8.44 ± 0.21
TTTTTATTTTTTATGTAATTTAAATAATTATTCAAA [CACACA_negctrl_site1549] | 8.15 ± 0.4
AGTAAACGATGATGTTGTACAAAAAGGATAATTTAA [XGTACX_site6698] | 8.96 ± 0.41
GTATTCTTCTCTCCGTGTACATATATATGTATATAT [XGTACX_site803] | 9.26 ± 0.35
TATCATAATAGACACAGTACATATATGTCTTAAATT [XGTACX_site8775] | 8.48 ± 0.47
TATATATATATGCTACGTACATATATATTATATATA [XGTACX_site7894] | 9.79 ± 0.17

Sequence | gcPBM binding intensity (ln)
GTAACCCACCAAAATGCACACATTAAAAAAAAAAAA [CACACA_site1046] | 8.73 ± 0.59
TGTTTCTAAAAAAAAGGTACACATATATATAATATA [XGTACX_site3217] | 8.52 ± 0.26
AAACCGTGGGAGCACACACACACACGCGCACATATA [CACACA_site6288] | 8.78 ± 0.52
TTTATCAAAATAAATGCACACAAATTGCACATATCT [CACACA_site8281] | 8.415 ± 0.078
AAAAAATTTCAAATGACATAATGTAATTTCCCTTTT [GTGCAC_negctrl_site673] | 8.1 ± 0.5
TATATATTATATATATGTACATATTTATTTTATTTT [XGTACX_site6989] | 8.47 ± 0.3
AATACCGGAAAGCAAACACACATTTGAAAACCATAA [CACACA_site7761] | 8.88 ± 0.48
ATAGTTTATACAAATAGTACGCACAAAAAAAAATAA [XGTACX_site6727] | 8.74 ± 0.38
TATATATAAACAAAATGTACATATTTGAGATACCCT [XGTACX_site2195] | 8.53 ± 0.23
TAATAAATAAATGACACACACACACCCAAAAAAAAA [CACACA_site2623] | 8.75 ± 0.35
AGCTATGTATTCTACACACACATACACCCATATATA [CACACA_site5827] | 8.88 ± 0.47
TTATTAACCTAAATTAGTACATATAATATAAAAAAT [XGTACX_site8661] | 8.59 ± 0.42
TTGAAATGCATGAACACACACAGCTATAAATGCATA [CACACA_site968] | 8.46 ± 0.47
AAAATATTATCTAATTGTACTTATATAACTATATAT [XGTACX_site5699] | 8.27 ± 0.35
AAATTTATGAACCTAGTGCAGAAATTAAAAAGATGA [GTGCAC_site9396] | 8.84 ± 0.23
ATACTAAGGAGAAAAGAAAAGTGAATTTATTCTATA [CACACA_negctrl_site1792] | 8.27 ± 0.43
AAACATTTATCAATGAATCTTTTAATAAGTGTAAAG [XGTACX_negctrl_site80] | 8.12 ± 0.61
TCATTCAGTTTTATCACACACAATCAAACATATATA [CACACA_site2742] | 8.6 ± 0.47
